ChEMBL document CHEMBL4888484, “Replenishing the malaria drug discovery pipeline: Screening and hit evaluation of the MMV Hit Generation Library 1 (HGL1) against asexual blood stage Plasmodium falciparum ,using a nano luciferase reporter read-out” (2022)
Values joined by “and” are separate entries in the source; they are usually repeats but may differ in a detail not shown here. Equal entries are not always repeated. Out of some 150,000 compounds screened, about 540 (0.36%) showed an effect of 50% or more. This is one part of the list.

Tested on: Plasmodium falciparum
Test: Primary screen in NF54 nanoGlo assay, in single point, at 2uM, 72h; a lower Z score goes with more inhibition
Format: functional, Erythrocyte
Conditions: timepoint 72 hour

O=C(CNCc1cccs1)NC1CCCCC1
% Inhibition: -15%
Z score: 1.56

Cc1cc(-c2ccc(C(=O)N3CCCCCCC3)cc2)cnc1-n1cnnc1
% Inhibition: 0%
Z score: 0.05

O=C(c1ccc2nc(N3C(=O)CCC3=O)sc2c1)N(CCO)c1ccccc1
% Inhibition: -31%
Z score: 4.21

N#CCN1CCC(Nc2ccc(Cl)c(C#N)n2)CC1
% Inhibition: 17%
Z score: -2.18

C[C@H](Oc1cccc(Cl)c1)c1nnc2n1CCOC2
% Inhibition: -11%
Z score: 1.74

Cc1cccc(NC(=O)CN(C)C[C@@H](C)CC(C)C)c1C
% Inhibition: 5%
Z score: -0.63

Cc1ccc(S(=O)(=O)Cc2nc(O)c3ccccc3n2)cc1
% Inhibition (2 µM): -9% and -1%

O=C(NC1CC1)N1CCN(S(=O)(=O)c2ccccc2)CC1
% Inhibition: 2%
Z score: -0.21

CC(C)CS(=O)(=O)C1CN(C(=O)CCc2cccc(Oc3ccc(F)cc3)c2)C1
% Inhibition: -23%
Z score: 2.94

Cn1cc(S(=O)(=O)NC[C@]2(O)CCCc3ccccc32)cn1
% Inhibition: -6%
Z score: 1.13

CCNC(=O)[C@@H]1CC[C@](C)(C(=O)NCc2ccc(O)cc2)C1(C)C
% Inhibition: -9%
Z score: 0.83

OC1CCN(c2cc(N3CCC(O)CC3)nc(-c3ccccc3)n2)CC1
% Inhibition: -10%
Z score: 1.2

COc1ccc(Cl)c(S(=O)(=O)N2CC3(CCC3(F)F)C2)c1
% Inhibition: -10%
Z score: 1.34

O=C(c1cc(Br)cc2[nH]cnc12)N1CCc2cnccc21
% Inhibition: 0%
Z score: 0.05

Cc1cc(NC(=O)NCC2(S(C)(=O)=O)CC2)cc(C)c1Cl
% Inhibition: 6%
Z score: -0.91

O=C(NCc1ccccc1)C1CCN(S(=O)(=O)c2ccc3[nH]ccc3c2)CC1
% Inhibition: -9%
Z score: 1.56

OC[C@H]1C=C[C@@H](Nc2nccc(C(F)(F)F)n2)C1
% Inhibition: -9%
Z score: 1.44

CC1CC(O)CCN1CC(=O)Nc1cc(C2CC2)nn1-c1ccccc1 (centres undefined)
% Inhibition: -5%
Z score: 0.59

CN1CCN(C(=O)CC2CC3CCC2C3)CCC1=O (centres undefined)
% Inhibition: 4%
Z score: -0.43

CCc1nc(C2CCCN2C2C=CCCC2)no1 (centres undefined)
% Inhibition: -10%
Z score: 1.73

Cc1ccc(C(=O)N2C[C@H]3CCC(=O)c4cccc2c43)nc1C
% Inhibition: 3%
Z score: -0.68

CCc1c(C)c(C(=O)N2CCN(c3ccccc3C)CC2)n(Cc2ccccc2C)c1C
% Inhibition: -13%
Z score: 1.51

CO[C@H]1CCC[C@@H]1Nc1nc2ccccc2o1
% Inhibition: 0%
Z score: -0.05

O=C(N[C@@H]1CN(Cc2cc(Cl)ccc2F)C[C@H]1CO)C1CCC1
% Inhibition: -5%
Z score: 0.69

c1ccc(OCc2nc3ccccc3n2CC2CCCCC2)cc1
% Inhibition: -6%
Z score: 0.86

Cc1nn(C)cc1CN1CCN(S(=O)(=O)c2ccc(C(N)=O)o2)CC1
% Inhibition: -1%
Z score: 0.21

O=C(CCS(=O)(=O)c1ccc(Cl)cc1)Nc1nc(-c2nc3ccccc3s2)cs1
% Inhibition: -11%
Z score: 1.97

Cc1nc(Cn2nnc3ccccc3c2=O)n(-c2ccc(Cl)cc2)n1
% Inhibition: 19%
Z score: -2.37

Clc1cccc(NCn2cnc3ccccc32)c1
% Inhibition: -16%
Z score: 2.12

O=C(NC[C@H]1CCCCO1)c1cccc(CN2CCCCCC2)c1
% Inhibition: -7%
Z score: 0.77

CC(=O)NCc1cc2n(n1)CCN(c1ccc(-c3ccccc3)nn1)C2
% Inhibition: -10%
Z score: 1.4

O=C1CCNCCC[C@H](c2nc(-c3ccccc3)no2)CCN1
% Inhibition: 4%
Z score: -0.76

CC(C)C(OCC1CCCO1)C(=O)NC(C)C1CC2CCC1C2 (centres undefined)
% Inhibition: 0%
Z score: 0.03

C[C@H](NC(=O)NCc1ncnn1C(C)(C)C)C1CC1
% Inhibition: -5%
Z score: 0.69

COC(=O)C(C)(C)CNC1CCCCC1S(C)(=O)=O (centres undefined)
% Inhibition: 4%
Z score: -0.4

CN1C[C@H]2CN(C(=O)CCc3conc3-c3ccccc3)C[C@@]2(C(=O)N2CCCC2)C1
% Inhibition: -2%
Z score: 0.24

COCCN1CC(=O)N[C@H]2CN(CC3CCC3)C[C@@H]2OCc2cccc(c2)Oc2cncc(c2)C1=O
% Inhibition: 1%
Z score: -0.19

CC(C)OCCS(=O)(=O)N1CCN(C2CCC2)CC1
% Inhibition: -3%
Z score: 0.3

NC(=O)CN1C(=O)[C@]2(CCN(C(=O)CCc3ccncc3)C2)c2ccccc21
% Inhibition: -5%
Z score: 0.85

Cc1ccc(OC(C)CNC(=O)CCC2CCCO2)cc1 (centres undefined)
% Inhibition: -8%
Z score: 1.54

CC(C)c1nc(N2CCCC2=O)sc1C(=O)NCc1ccc2c(c1)OCO2
% Inhibition: -13%
Z score: 1.18

CCCOc1ccc(C2C3C(=O)N(c4cccc5ccccc45)C(=O)C3ON2c2ccccc2)cc1OCC (centres undefined)
% Inhibition: 3%
Z score: -0.28

CC[C@H](NC(=O)CN1CCS(=O)(=O)CC1)c1c(C)nn(C)c1C
% Inhibition: -2%
Z score: 0.28

CC1CC2CCCCC2N1C(=O)C1CC=CC1 (centres undefined)
% Inhibition: -15%
Z score: 2.13

Cc1cc(N2CC[C@H](N3CCOCC3)[C@H](CCC(=O)O)C2)nc(C)c1C#N
% Inhibition: -11%
Z score: 1.95

Cc1ccc(-c2ocnc2C(=O)Nc2ccc(Cl)cc2C)o1
% Inhibition: 6%
Z score: -0.58

COc1ccccc1-c1nnc(CN2CCC[C@H]2c2cnn(C)c2)o1
% Inhibition: -6%
Z score: 0.84

O=C(Nc1cccc(-c2ccsc2)c1)N[C@H]1CCOC1
% Inhibition: -6%
Z score: 0.7

Cc1cccc(S(=O)(=O)Nc2cccn3nc(C4CC4)nc23)c1
% Inhibition: -3%
Z score: 0.34

CC1=NN(c2ccc(C)cc2)C(=O)C12Cc1cc(C(F)(F)F)ccc1N1CCN(c3ncccn3)CC12 (centres undefined)
% Inhibition: -43%
Z score: 5.08

Cc1cc(=O)n2ccn([C@H]3CCC(C)(C)C3)c2n1
% Inhibition: -11%
Z score: 1.25

Cc1ccccc1CC(=O)Nc1ccc(-c2nc3ncccc3o2)cc1
% Inhibition: 35%
Z score: -4.66

CN(C)S(=O)(=O)CCn1cc(-c2ccc3c(c2)CCC3)nn1
% Inhibition: 5%
Z score: -0.63

Cn1ncc2c1CN(c1ncc(C(F)(F)F)cc1Cl)C2
% Inhibition: 9%
Z score: -1.27

O=C(CN1CCCCC1=O)Nc1ccc(Cl)c(OC(F)F)c1
% Inhibition: -8%
Z score: 1.31

COC(=O)CCN1CCN(Cc2cn(C)nc2C)[C@@H](C)C1
% Inhibition: -9%
Z score: 1.1

CCCCNC(=O)Cc1noc([C@@H](O)C2CCCC2)n1
% Inhibition: -11%
Z score: 1.53

Cc1ccc(-c2csc(NS(=O)(=O)c3ccc(Cl)cc3)n2)o1
% Inhibition: 1%
Z score: -0.22

COc1nn(C)cc1C(=O)NCCN1Cc2cc(Cl)ccc2OCC1=O
% Inhibition: -10%
Z score: 1.8

COc1ccc(CN2C(=O)N[C@@H](CC(=O)Nc3nccs3)C2=O)cc1OC
% Inhibition: 9%
Z score: -1.12

Cc1ccc([C@@H]2CCCCN2C(=O)Cc2ccn(C)n2)o1
% Inhibition: -6%
Z score: 0.97

Cc1nn(C)cc1CN1CCC[C@@](F)(c2nc(-c3ccncc3)no2)C1
% Inhibition: 5%
Z score: -0.67

O=C1CN(c2ccccc2)C(=O)N1CC1CCS(=O)(=O)CC1
% Inhibition: 2%
Z score: -0.24

CC[C@H](C)Cc1nc(CN)n(Cc2cccc(C)c2)n1
% Inhibition: 0%
Z score: 0.05

COc1ccccc1CNC(=O)[C@@H]1CN(S(C)(=O)=O)c2cc(C)ccc2O1
% Inhibition: 11%
Z score: -1.46

COCc1ccc(C(=O)N(CC(F)(F)F)[C@H]2CCCOC2)cc1
% Inhibition: -10%
Z score: 1.04

Cc1cc(C2CCC(C(=O)NCC3CC3)CN2C(=O)NC(C)C)ccc1F (centres undefined)
% Inhibition: 0%
Z score: 0

CC(C)Cc1ccc(S(=O)(=O)N(CCCc2ccccc2)CC(=O)N2CCNCC2)cc1
% Inhibition: 3%
Z score: -0.37

Cc1cc(C(=O)NC[C@@H](c2ccco2)n2cccn2)no1
% Inhibition: 8%
Z score: -1.14

CS(=O)(=O)c1ccc(-n2nc(C3CC3)nc2COCc2ccccc2)cc1
% Inhibition: -3%
Z score: 0.25

COc1ccccc1CNC(=O)C1CCN(c2nnc3c(Cl)cccn23)CC1
% Inhibition: -10%
Z score: 1.14

Cc1c(O)cccc1C(=O)N1CCCN(CC2CC2)[C@H](C(C)C)C1
% Inhibition: -12%
Z score: 1.08

CCNC(=O)c1ccc(-c2ccc3c(c2)OCCO3)nc1
% Inhibition: -2%
Z score: 0.32

CN1C(=O)C2(CCN(C(=O)[C@H]3CC(=O)N(C4CC4)C3)CC2)c2ccccc21
% Inhibition: -3%
Z score: 0.65

C[C@H]1C[C@@H](c2nc(Cc3cccnc3)no2)CCN1C
% Inhibition: -4%
Z score: 0.84

CCC(=O)N1CCN(c2nc3c(s2)C[C@@H](C(=O)N2CCN(C(C)C)CC2)CC3)CC1
% Inhibition: 34%
Z score: -3.9

C[C@@H]1C[C@H](O)CN(C(=O)NCC2CCOC3(CCC3)C2)C1 (some centres undefined)
% Inhibition: -3%
Z score: 0.35

CC(C)c1nc(NC(=O)[C@H](C)OC2CCCCCC2)n(C)n1
% Inhibition: -5%
Z score: 0.59

O=C(NCC[C@H]1CCCO1)c1sccc1OC(F)F
% Inhibition: -6%
Z score: 0.59

O=C(NCc1nccs1)c1ccc2c(c1)CN(CCCn1ccnc1)C2=O
% Inhibition: -8%
Z score: 0.96

COCCOc1ccnc(-c2noc([C@@H]3CCCN3Cc3cccc(OC)c3)n2)c1
% Inhibition: -8%
Z score: 1.15

Cc1nc(CNC(=O)CN(C)C(N)=O)sc1C
% Inhibition: -12%
Z score: 1.17

COc1ccc(CNC(=O)Cn2c(C)cc(-c3nnc(C)o3)c2C)cc1
% Inhibition: -3%
Z score: 0.51

CC[C@H](C)N(Cc1csc(COc2cc(C)cc(C)c2C)n1)C(=O)c1ccc(OC)cc1
% Inhibition: -10%
Z score: 1.24

CC1CCN(c2nc(O)c3c(n2)CCN(Cc2ccc(-c4ccc(C#N)cc4)o2)C3)CC1
% Inhibition: -7%
Z score: 1.23
